Test results as given in US20210292393A1 (published 2021).

Molecular target: SARS-CoV-2 spike (S) protein (SARS-CoV-2)

B1: antibody 274 (antibody, V domains shown)
VH: QVQLVESGGGVVQPGRSLRLSCAASGFTFSSYAMHWVRQAPGKGLEWVAVISYDGSNKYYADSVKGRFTISRDNSKNTLYLQMNSLRAEDTAVYYCARDSESDSSGWLHYFDYWGQGTLVTVSS
VL: not shown
- Kd: 28.4 nM
- koff: 0.000854 s⁻¹
- kon: 30100 M⁻¹ s⁻¹
